# According to PubChem BioAssay AID720542 (National Center for Advancing Translational Sciences (NCATS), 2013):
# The campaign covered roughly 360,000 compounds. About 740 (0.21%) were called active. Inconclusive means that the source gave no clear call. Such entries were picked first, then a sample of the others. The call rests on the fitted dose curve; in most records, active means well fitted inhibition curve with a large enough effect; inconclusive means small, poorly fitted or top-dose-only effect; inactive means no such curve, though single readings can be large or run the other way. Potencies of inconclusive entries are left out as doubtful fits.
# Tested on: Plasmodium falciparum AMA1 (3D7) - RON2 peptide interaction
# Test: qHTS for Inhibitors of AMA1-RON; Towards Development of Antimalarial Drug Lead: Primary Screen; further: nearly all actives have a fitted effect of over 45% in size;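 on activity change, negative = inhibition: 0% = vehicle wells and -100% = peptide control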
# Details: AlphaScreen AMA1-biotinylated RON2 peptide binding; activity change, negative = inhibition: at 58.2 µM (top of the series) unless noted
# Procedure, shortened: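 AMA1 (3D7) with his tag at 25 nM final met compounds first, then biotinylated RON2 peptide at 25 nM; detection used donor plus acceptor beads, 10 µg/mL apiece, read by AlphaScreen after 30 min at room temperature.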
# Potency means the concentration at half of the fitted maximal effect; tags describe the fitted curve by direction and shape.
SMILES,Potency,"activity change, negative = inhibition"
O=S(=O)(c1ccc(F)cc1)N1CCN(CC(O)COc2ccccc2F)CC1 (stereo not given),"inconclusive [inhibitor, single point]",
COC(=O)C1C(=O)C2=C(CC1C)NC(C)=C(C(=O)OC1CCCCC1)C2c1ccc(N(C)C)cc1 (stereo not given),"inconclusive [inhibitor, partial curve]",
C=CCNC(=O)c1ccccc1NC(=O)C1CC(=O)N(C(C)C)C1 (stereo not given),,inactive: 4.22%
C(=N/N1CCN(c2ccccc2)CC1)/c1ccncc1,"inconclusive [inhibitor, partial curve, poor fit]",
CC(=NNc1nc2ccccc2s1)c1ncccn1,"inconclusive [inhibitor, single point]",
CCCCc1cc(=O)oc2c(C)c(OCC(=O)NCC3CCC(C(=O)O)CC3)ccc12 (stereo not given),,inactive: 0%
COC(=O)c1ccc2c(=O)n(CCO)c(=S)[nH]c2c1,,inactive: 45.9%
Oc1ccc(/C=N/NC(=S)Nc2cccnc2)c(O)c1O,"inconclusive [inhibitor, partial curve]",
O=C(C1=C(O)C(=O)N(Cc2cccnc2)C1c1cccc(Oc2ccccc2)c1)c1ccco1 (stereo not given),,inactive: 85.3%
COc1ccc(C(CNC(=O)c2cccc(S(=O)(=O)Nc3ccccc3OC)c2)N2CCCC2)cc1 (stereo not given),,inactive: 40%
C=CCNc1nc(NCc2ccc(N(C)C)cc2)c2sc(-c3ccccc3)cc2n1,active: 2.82 µM,
S=C(NCC1CCCO1)Nc1ccc(Nc2ccccc2)cc1 (stereo not given),"inconclusive [inhibitor, single point]",
COC(=O)[C@@]12CCCN1[C@H](c1ccc(-c3cccc(Cl)c3)cc1)[C@H]1C(=O)N(C)C(=O)[C@H]12,,inactive: -15.3%
O=C(/C=C\Nc1ccccc1Br)c1ccc2c(c1)OCO2,"inconclusive [inhibitor, single point]",
CCN(CC)S(=O)(=O)c1ccc2c(c1)c(=O)c(C(=O)NCc1ccco1)cn2C,,inactive: -3.72%
Cc1ccc(NC(CNS(=O)(=O)c2ccc(Cl)cc2)c2ccccc2)cc1 (stereo not given),"inconclusive [inhibitor, partial curve]",
CCOC(=O)c1c(S(=O)(=O)NCCc2ccccc2)c(C)n(C)c1C,"inconclusive [inhibitor, partial curve, poor fit]",
C=CCCC(=O)Nc1nc(C)c(-c2csc(Nc3cc(OC)ccc3OC)n2)s1,,inactive: -13.7%
CCOC(=O)C(C)/C(C)=N\Nc1ccc([N+](=O)[O-])cc1[N+](=O)[O-] (stereo not given),"inconclusive [inhibitor, partial curve]",
COC(=O)[C@]1(C)N[C@H](CN(C)S(=O)(=O)c2ccc(F)cc2)[C@@H]2C(=O)N(Cc3ccccc3)C(=O)[C@@H]21,,inactive: -5.06%
COc1ccc(CNc2cc(C)ccn2)c(O)c1,"inconclusive [inhibitor, full curve, poor fit]",
CC(C)(C)C1CCNC(=O)CC1 (stereo not given),,inactive: 3.2%
CCn1c(-c2ccc(-c3ccccc3)cc2)c[nH]c1=S,,inactive: 10.2%
Cc1cc(C)c(C)c(OCCN2CC(C)OC(C)C2)c1 (stereo not given),active: 28.2 µM,

SMILES,Potency,"activity change, negative = inhibition"
CCOCCn1c(CN2CCN(c3ccc(F)cc3)CC2)nc2c1c(=O)n(C)c(=O)n2C,,inactive: 4.82%
Cc1cc2ncn(C(=O)N3CCCCC3)c2cc1C,"inconclusive [inhibitor, partial curve]",
COc1ccc(CCNS(=O)(=O)c2cn(C)cn2)cc1OC,"inconclusive [inhibitor, partial curve]",
CCN(c1cccc(C(F)(F)F)c1)S(=O)(=O)c1ccc2c(c1)CCN2C(C)=O,"inconclusive [inhibitor, single point]",
COc1ccc(NC(C)=O)cc1S(=O)(=O)N1CCN(Cc2cccs2)CC1,,inactive: 8.3%
CCO[C@@H]1OC(C(=O)N2CCN(C)CC2)=C[C@H](c2csc3ccccc23)[C@H]1CCCO,,inactive: 2.33%
CCN(CC)c1ccc(NC(=O)COC(=O)C2CCN(c3ccc(C(F)(F)F)cn3)CC2)cc1,"inconclusive [inhibitor, partial curve]",
COc1cc(OC)c2c(c1)C(=O)c1cc(OC)cc(OC)c1C2=O,"inconclusive [inhibitor, single point]",
Oc1ccccc1N=Nc1nc(-c2ccccc2)c(-c2ccccc2)[nH]1,"inconclusive [inhibitor, single point]",
CCN(CC)c1ccc(CNc2nc3ccccc3n2CC)cc1,"inconclusive [inhibitor, partial curve]",
O=c1[nH]cc(F)c(=O)[nH]1,,inactive: 12.1%
Cc1ccc(OCCCCNC(C)(C)C)c([N+](=O)[O-])c1,"inconclusive [inhibitor, partial curve]",
O=[N+]([O-])c1cccc(C(=S)N2CCN(c3ccccc3F)CC2)c1,"inconclusive [inhibitor, partial curve, poor fit]",
COC(=O)CCN1CCN(S(=O)(=O)c2ccccc2Br)CC1,"inconclusive [inhibitor, single point]",
CCOC(=O)c1c2c(n(Cc3ccccc3)c1C)C(=O)C(=O)c1ccccc1-2,"inconclusive [inhibitor, partial curve]",
O=[N+]([O-])c1ccc(Nc2c3ccccc3nc3ccccc23)cc1,"inconclusive [inhibitor, full curve]",
CC1Cc2ccccc2N1C(=O)CN1CCN(Cc2ccccc2)CC1 (stereo not given),"inconclusive [inhibitor, partial curve]",
c1ccc(-c2sc3ccccc3c2-c2ccc(OCCN3CCCC3)cc2)cc1,,inactive: -29.1%
Cc1ccc(NC(=O)CSc2nnc(-c3ccccn3)n2N)c(Br)c1,"inconclusive [inhibitor, partial curve]",
CCN(CC)CCn1cnc2c1c(=O)n(CCOC(=O)c1cc(OC)c(OC)c(OC)c1)c(=O)n2C,"inconclusive [inhibitor, partial curve, poor fit]",
CC(Oc1cccc(Cl)c1)C(=O)Nc1ccccc1N1CCCC1 (stereo not given),"inconclusive [inhibitor, partial curve]",
CCOC(=O)c1ccc(S(=O)(=O)N2CCN(CC(O)COc3cccc(C(C)=O)c3)CC2)cc1 (stereo not given),"inconclusive [inhibitor, partial curve]",
CCCCC1CCC(C(=O)N(CC(C)C)c2c(N)n(Cc3ccccc3)c(=O)[nH]c2=O)CC1 (stereo not given),,inactive: 7.17%
Cc1nc(Nc2ccc(S(N)(=O)=O)cc2)sc1-c1ccccc1,,inactive: -25.4%

SMILES,Potency,"activity change, negative = inhibition"
COc1ccc(N2CCN(c3cc(C)c4ccc(C)cc4n3)CC2)cc1,"inconclusive [inhibitor, full curve]",
Nc1ccc2nc(-c3cc(Cl)c(N)c(Cl)c3)[nH]c2c1,"inconclusive [inhibitor, partial curve]",
COc1ccc(O)c(C(=O)/C=C/c2cc3ccccc3o2)c1,"inconclusive [inhibitor, partial curve]",
Cc1cc(C(=O)Nc2ccc(C)c(S(=O)(=O)N3CCOCC3)c2)c(C)o1,,inactive: -11.8%
CCCCCOC(=O)Cc1c(C)nc(-c2ccccc2)[nH]c1=O,,inactive: -5.4%
CN(C(=O)CSc1cc(C(=O)c2nccn2C)c2ccccc2n1)c1ccccc1,"inconclusive [inhibitor, partial curve]",
COc1ccc(F)cc1CN1CCN(c2ncnc3scc(-c4ccccc4)c23)CC1,"inconclusive [inhibitor, partial curve]",
O=C(O)Cc1sc(Nc2ccc(F)cc2)nc1-c1cccs1,,inactive: 4.55%
CCc1ccccc1NC(=O)CN(C)S(=O)(=O)c1ccc(-c2ccc(=O)[nH]n2)s1,,inactive: 11.6%
CCCCCNc1nc(N2CCCC2)c2c(c1C#N)CCN(C)C2,"inconclusive [inhibitor, single point]",
COc1cc(NC(=O)C(C)Oc2ccccc2)c(OC)cc1NC(=O)c1ccccc1 (stereo not given),"inconclusive [inhibitor, partial curve]",
CN1c2cccc3cccc(c23)N(C)C1(C)C,"inconclusive [inhibitor, single point]",
COc1cc(/C=C2\C(=O)ON=C2c2ccccc2)cc(Br)c1O,"inconclusive [inhibitor, single point]",
CCOC(=O)c1c(/N=C/C2C(=O)NC(=S)NC2=O)sc2c1CCC2,"inconclusive [inhibitor, single point]",
O=C(/C=C/c1cccs1)N1CCC2(CC1)Oc1ccc(Cl)cc1C(=O)C21CC(c2ccccc2)=NO1 (stereo not given),"inconclusive [inhibitor, single point]",
CC(C)NCCOCCOc1ccccc1F,"inconclusive [inhibitor, full curve]",
Cc1cc(C)nc(SCC(=O)N2CCCCC2)n1,,inactive: -1.98%
O=C(CN1N=C(C(F)(F)F)CC1(O)c1ccc([N+](=O)[O-])cc1)c1ccccc1 (stereo not given),"inconclusive [inhibitor, partial curve]",
COc1cc2c(cc1OC)CN(C(=O)c1ccc(N3CCCC3)c([N+](=O)[O-])c1)CC2,"inconclusive [inhibitor, partial curve]",
COc1ccc(NC(=O)c2ccccc2Oc2ccccc2)cc1,,inactive: 12.4%
CC(OC(=O)CCCC(=O)Nc1ccccc1)C(=O)c1ccccc1 (stereo not given),"inconclusive [inhibitor, partial curve, poor fit]",
NC(=O)CC(NC(=O)c1cccc(Br)c1)c1ccc(NC2CCC2)c([N+](=O)[O-])c1 (stereo not given),"inconclusive [inhibitor, single point]",
